The text below walks through data of ChEMBL document CHEMBL4888484, “Replenishing the malaria drug discovery pipeline: Screening and hit evaluation of the MMV Hit Generation Library 1 (HGL1) against asexual blood stage Plasmodium falciparum ,using a nano luciferase reporter read-out” (2022).

Where “and” joins values, the source holds several entries; their conditions need not be identical. Equal entries are not always repeated. Among all 150,000 compounds or so, about 540 (0.36%) showed an effect of 50% or more. This is one part of the list.

The test has as its system Plasmodium falciparum. In words: Primary screen in NF54 nanoGlo assay, in single point, at 2uM, 72h; a lower Z score goes with more inhibition. The test is classed as functional, Erythrocyte. To be noted: timepoint 72 hour.

As usually defined, the % Inhibition is the relative decrease from the control value, in per cent. Regarding `Cc1cc(C(=O)N(C)C2Cc3ccccc3C2)c(NC(=O)C(C)(C)C)s1`, the “% Inhibition” value was -3% and the Z score came out at 0.38.
For the molecule `CC[C@H]1CCCCN1S(=O)(=O)c1ccc2c(c1)CCC(=O)N2`, the “% Inhibition” value is given as -6% and the Z score is recorded as 0.89.
Regarding `CC(C)C[C@@H]1CN(C(=O)CCC(=O)Nc2nncs2)CC[C@]1(C)O`, the “% Inhibition” value is on record as -18% and the Z score worked out at 2.38.
The corresponding values for `COc1ccccc1CN[C@H]1COCc2ccccc21` are -1% and 0.18.
Taken in the same sequence, the figures for `N#CCN1CCC(CNC(=O)c2ccncc2F)CC1` were -9% and 1.76.
In the case of `C=CCOc1ccccc1CN(CC)C(=O)Cc1c(C)[nH][nH]c1=O`, the “% Inhibition” value was 15% and the Z score is recorded as -1.89.
With `Cc1noc(C)c1C(=O)N1CCOC2CCCCC21` (centres undefined), the “% Inhibition” value is listed as -10% and the Z score is 1.37.
In the case of `CCn1nnnc1NC(=O)NCC[C@H]1CCC2(CCC2)O1`, the “% Inhibition” value is -5% and the Z score was 1.06.
As to `Cc1ccc2nc(-c3ccc(C)o3)c(NC(=O)c3ccc(F)cc3)n2c1`, the “% Inhibition” value is recorded as -9% and the Z score amounted to 1.24.
The corresponding values for `COC(=O)N1CCc2ccc(Br)cc2[C@@H]1C(=O)NCc1ccc2c(c1)OCO2` are 0% and 0.07.
For `CCn1nc(C2CCOCC2)nc1C[C@@H]1NC(=O)c2ccccc21`, the “% Inhibition” value is given as -4% and the Z score is given as 0.52.
As for `N#Cc1cn[nH]c1NC(=O)C(=O)N1CCN(c2ccc(F)cc2)CC1`, under “2 µM”, the “% Inhibition” value was -7% and -4%; the Z score was 0.9 and 0.47.
In the case of `CS(=O)(=O)NC[C@H]1CCOC2(CCN(C(=O)c3cncc(Br)c3)CC2)C1`, the “% Inhibition” value is listed as -12% and the Z score is 1.93.
Regarding `CNC(=O)C1CN([C@@H](C)C(=O)OC(C)(C)C)C1`, the “% Inhibition” value was 0% and the Z score is on record as 0.
On to `COc1cc(NC(=O)[C@H]2CCCN(c3cc(=O)n(C)c(=O)n3C)C2)cc(OC)c1OC`, for which the “% Inhibition” value is listed as -1% and the Z score is 0.09.
For `Cc1noc(NC(=O)c2cc3c(F)cccc3s2)n1`, the “% Inhibition” value is given as -3% and the Z score was 0.41.
The corresponding values for `Cc1cccc(C)c1NC(=O)CN(CC(=O)Nc1c(C)cccc1C)Cc1ccccc1C(F)(F)F` are 0% and -0.07.
As to `COc1cccc(-c2nc3ccc(-c4cccc(C(F)(F)F)c4)cn3c2CCC(=O)NC2CCCCC2)c1`, the “% Inhibition” value worked out at 1% and the Z score was -0.06.
For `O=S(=O)(Nc1ccc(-c2nc3ccc(Cl)cc3s2)c(Cl)c1)c1ccccc1Cl`, the “% Inhibition” value was -9% and the Z score amounted to 1.61.
Turning to `Cc1noc(C2CN(C(=O)CCc3c(C)noc3C)C2)n1`, the “% Inhibition” value turned out to be 1% and the Z score is recorded as -0.09.
Regarding `Cc1ccccc1[C@H](C)NS(=O)(=O)c1ccc(Cl)c(-c2nnn[nH]2)c1`, the “% Inhibition” value is listed as -11% and the Z score came to 1.43.
`Cc1noc([C@H](C)OC(=O)c2cc3c(cc2O)CCCC3)n1`: the “% Inhibition” value was -10% and the Z score was 1.03.
For `CCOc1ccc(C(=O)N2CCN(c3cc(N4CCN(C)CC4)ncn3)CC2)cc1`, the “% Inhibition” value is listed as -10% and the Z score came to 1.22.
For the molecule `CCn1ncc(C(CC(=O)c2ccccc2)CC(=O)c2ccccc2)c1C`, the “% Inhibition” value was -8% and the Z score was determined as 1.07.
Take `COC[C@H]1CN(c2nc(-c3ccccc3)ns2)CCO1`: the “% Inhibition” value is reported as -10% and the Z score was determined as 1.39.
With `CO[C@H]1[C@H](NC(=O)c2ccco2)c2ccccc2C12CCN(Cc1c[nH]cn1)CC2`, the “% Inhibition” value is reported as -6% and the Z score is 1.08.
Take `CC(C)(O)[C@H](O)C(=O)N1CCc2cc(Br)c(F)cc2C1`: the “% Inhibition” value worked out at 4% and the Z score was -0.52.
Consider `C[C@H](NCCN1CCCS1(=O)=O)c1cc2cc(Cl)ccc2o1`, for which the “% Inhibition” value is recorded as -8% and the Z score worked out at 1.4.
Take `Cc1cc(C(=O)N[C@H]2CC[C@H](Oc3nccnc3C#N)CC2)no1`: the “% Inhibition” value was -12% and the Z score was determined as 1.39.
`CC(C)(C)NC(=O)NCc1nnc(C(=O)Nc2ccc3c(c2)OCO3)s1`: the “% Inhibition” value is given as 10% and the Z score is reported as -1.2.
Taken in the same sequence, the figures for `O=C(c1ccc2c(c1)OCO2)N1CCC[C@@]2(C1)NC(=O)N(Cc1ccccc1)C2=O` were -5% and 0.65.
Taken in the same sequence, the figures for `CC(C(=O)NCC1CCCO1)N1CC(C)(C)C1C1CCCO1` (centres undefined) were 15% and -1.95.
`c1cc2ccc(NCc3nc4c(s3)CCCC4)nc2[nH]1`: the “% Inhibition” value is -8% and the Z score came out at 1.51.
On to `COc1ccc(-n2ncc3c(NCCNC(=O)C4CCCC4)nc(C)nc32)cc1`, for which the “% Inhibition” value is on record as -5% and the Z score worked out at 0.61.
On to `Cc1noc(C)c1C(=O)Nc1sc2c(c1C(=O)N1CCOCC1)CC[C@H](C)C2`, for which the “% Inhibition” value is reported as -4% and the Z score is reported as 0.5.
Consider `COc1ccc(NC(=O)Nc2c(-c3ccc(C(F)(F)F)cc3)n[nH]c2C2CC2)c(OC)c1`, for which the “% Inhibition” value is listed as 8% and the Z score is -1.45.
The corresponding values for `CC(C)C[C@@H](N)C(=O)N(Cc1cnn(C)c1)C(C)C` are 1% and -0.17.
For `O=C1c2cccn2CC1C(O)c1ccncc1` (centres undefined), the “% Inhibition” value is given as -47% and the Z score came out at 5.55.
Regarding `ClC1(Cl)C[C@@H]1CCN1CCN(Cc2cocn2)CC1`, the “% Inhibition” value is given as -9% and the Z score is on record as 1.01.
Turning to `C[C@H]1C[C@@H](CO)CCN1C(=O)Cc1cccc(C2CC2)c1`, the “% Inhibition” value was -9% and the Z score was 1.43.
With `Cc1csc(CNC(=O)Cc2sc(N)nc2C)n1`, the “% Inhibition” value is listed as -17% and the Z score amounted to 2.55.
With `CN(C)c1nccc(N(C)CCN2CCOCC2)n1`, the “% Inhibition” value is recorded as -13% and the Z score is 1.14.
